The full ranking holds about 81,000 sequences; the median of “one-hybrid fitness for binding parS DNA” is about -0.17, and the highest 2% start at about 0.51. Some of the results follow.
B1: Caulobacter ParB omega fusion; a variant is named by its letters at X, in order, B8GW30 (parent)
chain: MESVVVGEPGMSEGRRGLGRGLSALLGEVDAAPAQAPGEQLGGSREAPIEILQRNPDQPRRTFREEDLEDLSNSIREKGVLQPILVRPSPDTAGEYQIVAGERAWRAAQRAGLKTVPIMVRELDDLAVLEIGIIENVQRADLNVLEEALSYKVLMEKFERTQENIAQTIGKSXSHVANXMRLLXLPDEVQSYLVSGELTAXHARAIAAAADPVALAKQIIEGGLSVRETEALARKAPNLSAGKSKGGRPPRVKDTDTQALESDLSSVLGLDVSIDHRGSTGTLTITYATLEQLDDLCNRLTRGI

Variants of: B1
Experiment: one-hybrid fitness for binding parS DNA (scaled: cognate 1, non-cognate 0); higher = stronger binding
Conditions: with parS DNA site
Method in brief: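 Bacterial one-hybrid selection in E. coli USO rpoZ- hisB- pyrF- with a HIS3 reporter carrying the site 19 bp from the promoter, screening Caulobacter ParB libraries with four specificity codons randomised (NNS). Cells grew 48 hours at 37°C on M9-minus-histidine plus 0.1 mM IPTG and 5 mM 3-AT. Plasmids before and after selection were Illumina-sequenced, three replicate libraries pooled, and variants under 10 reads dropped. Fitness is the log change in variant-to-wild-type read ratio, rescaled to cognate 1, non-cognate 0.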

Variant | one-hybrid fitness for binding parS DNA
SRTF | ≤ 0.2
VMLV | ≤ 0.2
LTML | ≤ 0.2
PVGW | ≤ 0.2
REHT | ≤ 0.2
TKPV | ≤ 0.2
PRDE | ≤ 0.2
IQRS | ≤ 0.2
GPDF | ≤ 0.2
PIQS | ≤ 0.2
QRDG | ≤ 0.2
DRGY | ≤ 0.2
EHRR | ≤ 0.2
QVRF | ≤ 0.2
WYYS | ≤ 0.2
KCTC | ≤ 0.2
LLGR | ≤ 0.2
TPQD | ≤ 0.2
GYGM | ≤ 0.2
KRDL | ≤ 0.2
GSNT | ≤ 0.2
CSWC | ≤ 0.2
ECKT | ≤ 0.2
PGYQ | ≤ 0.2
SPHM | ≤ 0.2

Variant | one-hybrid fitness for binding parS DNA
PNIS | ≤ 0.2
PPQV | ≤ 0.2
EMMN | ≤ 0.2
PVAP | ≤ 0.2
PMFR | ≤ 0.2
WILG | ≤ 0.2
SWGV | ≤ 0.2
RAYA | 0.602
SQKG | ≤ 0.2
ISVV | ≤ 0.2
ESRL | ≤ 0.2
AIHK | ≤ 0.2
YQLR | ≤ 0.2
VVCY | ≤ 0.2
QVGF | ≤ 0.2
ELVN | ≤ 0.2
DLFC | ≤ 0.2
DNRS | ≤ 0.2
WVHT | 0.294
WCTL | ≤ 0.2
LEEM | ≤ 0.2
PMGC | ≤ 0.2
SLIR | ≤ 0.2
QELG | ≤ 0.2
PDPT | ≤ 0.2

Variant | one-hybrid fitness for binding parS DNA
QIAD | ≤ 0.2
EIYW | ≤ 0.2
DTGL | ≤ 0.2
GYPC | ≤ 0.2
KHDT | ≤ 0.2
GQVG | ≤ 0.2
AGNL | ≤ 0.2
NRLT | ≤ 0.2
LLQL | ≤ 0.2
RTNT | 0.86
LANR | ≤ 0.2
PITK | ≤ 0.2
QCDV | ≤ 0.2
NFEL | ≤ 0.2
KYMR | ≤ 0.2
NAHA | ≤ 0.2
IKYG | ≤ 0.2
TSLY | ≤ 0.2
LCRR | ≤ 0.2
RFNM | 0.344
RTNQ | ≤ 0.2
QIKW | ≤ 0.2
RPNE | ≤ 0.2
NNCW | ≤ 0.2
QSMS | ≤ 0.2

Variant | one-hybrid fitness for binding parS DNA
VHET | ≤ 0.2
AVSY | ≤ 0.2
YNCR | ≤ 0.2
AANT | ≤ 0.2
GWCS | ≤ 0.2
NQAE | ≤ 0.2
GYCD | ≤ 0.2
RLWF | 0.255
SANL | ≤ 0.2
QHSG | ≤ 0.2
RCAA | 0.596
STRC | ≤ 0.2
YWVG | ≤ 0.2
RPYR | ≤ 0.2
HPIL | ≤ 0.2
TLEA | ≤ 0.2
PVIC | ≤ 0.2
SISF | ≤ 0.2
VVFV | ≤ 0.2
THMR | ≤ 0.2
NDMC | ≤ 0.2
PKKW | ≤ 0.2
DPFS | ≤ 0.2
DLQR | ≤ 0.2
WVAS | ≤ 0.2

Variant | one-hybrid fitness for binding parS DNA
SSKT | ≤ 0.2
VVRG | ≤ 0.2
PKRL | ≤ 0.2
ECTE | ≤ 0.2
RSFD | ≤ 0.2
PTNA | ≤ 0.2
RLMT | 0.955
STFT | ≤ 0.2
TVVE | ≤ 0.2
TYMA | ≤ 0.2
VDTT | ≤ 0.2
RHIG | 0.705
ERMG | ≤ 0.2
RSEN | 0.333
YDQS | ≤ 0.2
MPKR | ≤ 0.2
CPND | ≤ 0.2
AGHV | ≤ 0.2
TAAI | ≤ 0.2
PYTR | ≤ 0.2
LHLL | ≤ 0.2
GFDF | ≤ 0.2
QQLR | ≤ 0.2
PYCS | ≤ 0.2
YTLE | ≤ 0.2

Variant | one-hybrid fitness for binding parS DNA
QAIC | ≤ 0.2
TRYG | ≤ 0.2
TRQS | ≤ 0.2
YHTT | ≤ 0.2
KIRF | ≤ 0.2
QWIG | ≤ 0.2
LKHT | ≤ 0.2
PSKS | ≤ 0.2
FVTC | ≤ 0.2
WGYV | ≤ 0.2
AMWG | ≤ 0.2
FHRC | ≤ 0.2
MLAT | ≤ 0.2
SPYK | ≤ 0.2
KMKA | ≤ 0.2
RLTF | 0.248
SQMF | ≤ 0.2
SAEC | ≤ 0.2
VHTV | ≤ 0.2
SAFF | ≤ 0.2
RYHK | ≤ 0.2
ATYF | ≤ 0.2
ANVG | ≤ 0.2
QGDG | ≤ 0.2
SFTI | ≤ 0.2

Variant | one-hybrid fitness for binding parS DNA
NWDR | ≤ 0.2
AAML | ≤ 0.2
LGSP | ≤ 0.2
RQFM | 0.279
LSRY | ≤ 0.2
CENR | ≤ 0.2
RPMI | ≤ 0.2
MNDR | ≤ 0.2
SRIT | ≤ 0.2
RVCY | 0.462
RSHP | ≤ 0.2
NPWL | ≤ 0.2
YRKF | ≤ 0.2
AQRD | ≤ 0.2
AELT | ≤ 0.2
PYTK | ≤ 0.2
YRFR | ≤ 0.2
VLKI | ≤ 0.2
NDMH | ≤ 0.2
QPSF | ≤ 0.2
HESA | ≤ 0.2
TEDG | ≤ 0.2
TIYI | ≤ 0.2
VFTS | ≤ 0.2
CRLC | ≤ 0.2

Variant | one-hybrid fitness for binding parS DNA
HVMR | ≤ 0.2
HPKN | ≤ 0.2
AQAG | ≤ 0.2
DPGT | ≤ 0.2
KIDS | ≤ 0.2
IRPL | ≤ 0.2
QPYH | ≤ 0.2
TSHQ | ≤ 0.2
HNAC | ≤ 0.2
LFSL | ≤ 0.2
VVLD | ≤ 0.2
QRKP | ≤ 0.2
NSAG | ≤ 0.2
SHIR | ≤ 0.2
RQVV | ≤ 0.2
PLQP | ≤ 0.2
WINM | ≤ 0.2
PRFM | ≤ 0.2
QNTH | ≤ 0.2
ATQT | ≤ 0.2
